Experimental data as given in PMC6425991, “Peptide Super-Agonist Enhances T-Cell Responses to Melanoma” (Frontiers in Immunology, 2019).

Experiments:
[1] = tested on: CD8 T-cells from metastatic melanoma patients MM909.37 and MM1413.12; assay: Peptide priming of melanoma patient CD8 T-cells, tetramer staining; type: cell-based, human; settings: day 28, background staining of the primed line
Procedure: PBMCs were isolated from “buffy coats” using the SepMate protocol, as per the manufacturer's instructions ([…] Technologies, Vancouver, BC, Canada). CD8 T-cells were positively purified using anti-CD8 microbeads (Miltenyi Biotech), as per the manufacturer's instructions. […] CD8 T-cells were plated in 1 mL of priming media (as for T-cell media with 20 IU/mL of IL-2 and no IL-15) in 24 or 48 well plate at a density of 2 × 10^6 or 4 × 10^6 alongside peptide pulsed cells at a density of 3 × 10^6 and 8 × 10^6 per well, respectively. […] These T-cell “primings” were fed with fresh medium tri-weekly and from day 14 onwards supplemented with 25 ng/mL of IL-15.
Soluble biotinylated peptide-MHC monomers were produced in-house as previously described ([20]). Tetramers were assembled and 5 × 10^4 T-cells stained with 0.5 μg (10 μg/mL) of tetramer, with respect to pMHC component ([17]). An optimal tetramer staining protocol using the protein kinase inhibitor, Dasatinib ([21]), and primary unconjugated anti-PE antibody ([22]) was used as previously described ([23], [24]). Additionally, some samples were also stained with a secondary PE conjugated antibody to add further fluorescence to the tetramer stained cells ([22]).

HLA A2 = HLA A2 (Homo sapiens, UniProt P04439, D140Y/D185E/D98H/E176V/E277Q/G131W/G231S/I119V/I121R/I166T/I218V/L300P/N151K/N90K/P208A/P217A/Q86G/Q94H/R138H/R169H); settings: crystal structure of the binary pHLA complex

Sequence: MTSAIGILPV [altered peptide ligand super-agonist designed from CPL screen of clone ST8.24]
- percentage of irrelevant (ALWGPDPAAA) tetramer+ cells ([1]; patient MM909.37): 0.01%
- percentage of irrelevant (ALWGPDPAAA) tetramer+ cells ([1]; patient MM1413.12): 0.002%
- total number of contacts between the peptide and HLA-binding groove (HLA A2): 136
